Results taken from PubChem BioAssay AID485294 (National Center for Advancing Translational Sciences (NCATS), 2010).
The whole screen tested about 370,000 compounds, of which about 150 (0.041%) were called active. The shares of active, inactive and inconclusive entries below differ from those in the screen. The call rests on the fitted dose curve; in most records, active means well fitted inhibition curve with a large enough effect; inconclusive means small, poorly fitted or top-dose-only effect; inactive means flat fitted curve, though single readings scatter. No potency is given beside an inconclusive call; the fits are too rough.

target: Beta-lactamase (Escherichia coli (strain K12)) (UniProt P00811); test: qHTS Inhibitors of AmpC Beta-Lactamase (assay with detergent); conditions: AmpC hydrolysis of nitrocefin, absorbance 480 nm, 0.01% Triton; activity change, negative = inhibition: at 114 µM (top of the series); further: nearly all actives have a fitted effect of over 25% in size;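 on activity change, negative = inhibition: 0% = no-compound wells and -100% = no-enzyme wells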
In short: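 AmpC (5.3 nM in the dispensed reagent) in 20 mM phosphate pH 7.0 with 0.01% (detergent screen) or 0.0001% Triton X-100 was preincubated with compounds for 15 min at room temperature. Nitrocefin was then added from an 800 uM solution, and hydrolysis was followed at 480 nm.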
Potency means the concentration at half of the fitted maximal effect; tags describe the fitted curve by direction and shape.

Chain of UniProt P00811 (P00811 whole entry, looked up): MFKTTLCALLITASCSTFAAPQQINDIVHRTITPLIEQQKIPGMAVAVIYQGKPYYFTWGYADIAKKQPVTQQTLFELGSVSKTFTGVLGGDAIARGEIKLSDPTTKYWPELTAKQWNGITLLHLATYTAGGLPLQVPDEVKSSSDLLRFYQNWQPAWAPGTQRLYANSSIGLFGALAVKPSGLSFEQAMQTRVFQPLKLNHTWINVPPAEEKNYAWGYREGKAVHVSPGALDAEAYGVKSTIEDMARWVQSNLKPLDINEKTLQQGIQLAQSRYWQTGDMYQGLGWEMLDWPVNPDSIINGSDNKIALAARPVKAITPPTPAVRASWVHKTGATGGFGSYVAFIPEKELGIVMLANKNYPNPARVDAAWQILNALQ

**Q.** How did the Potency turn out when COCCCNC(=O)Cn1cc2c(n1)CCC(C)C2 (centres undefined) was run?
**A.** The Potency was inconclusive [inhibitor, partial curve].

**Q.** Which “activity change, negative = inhibition” value does the source give for COc1cccc(CNC(=O)CSc2c3c(nc4ccc(Cl)cc24)CCCC3)c1OC here?
**A.** Its value is inactive: 5.87%.

**Q.** With COc1ccc2[nH]c3c(c2c1)CCN=C3C as the compound, how does the Potency read?
**A.** The Potency was inconclusive [inhibitor, full curve].

**Q.** How did the Potency turn out when CN1CCc2c(sc(NC(=O)c3ccc(S(=O)(=O)N4CCOCC4)cc3)c2C(N)=O)C1 was run?
**A.** The Potency was inconclusive [inhibitor, full curve].

**Q.** Which Potency does the source give for COc1ccc(NC(=O)CN2C(=O)NC3(CC(C)CC(C)(C)C3)C2=O)cc1S(=O)(=O)N1CCCCC1 (centres undefined) here?
**A.** Its Potency is inconclusive [inhibitor, full curve, poor fit].

**Q.** With CSc1nc(-c2ccco2)nn1C(=O)Cc1ccccc1 as the compound, how does the Potency read?
**A.** The Potency was inconclusive [inhibitor, full curve].

**Q.** For Cc1c(CCC(=O)N2CCC[C@H]2C(=O)O)c(=O)oc2cc3oc4c(c3cc12)CCCC4, which Potency is on record?
**A.** Its Potency is inconclusive [inhibitor, full curve, poor fit].

**Q.** For O=C(Nc1ccccc1)c1sc2cc(C(F)(F)F)cnc2c1-c1cccs1, which “activity change, negative = inhibition” value is on record?
**A.** The value was inactive: 1.03%.

**Q.** With O=C(c1cc(-c2ccc(Br)cc2)nc2ccccc12)N1CCC1 as the compound, how does the Potency read?
**A.** Its Potency is inconclusive [inhibitor, partial curve, poor fit].

**Q.** How did the “activity change, negative = inhibition” value turn out when COc1ccc2nc(Cl)c(C3CC(c4ccco4)=NN3C(=O)CCCC(=O)O)cc2c1 (centres undefined) was run?
**A.** Its value is inactive: 4.33%.

**Q.** With O/N=C/c1ccccc1OCc1ccccc1F as the compound, how does the Potency read?
**A.** The Potency was inconclusive [inhibitor, partial curve, poor fit].

**Q.** How did the Potency turn out when CC1(C)CC(=O)C2=C(C1)N(c1ccc(F)cc1)C(=O)CC2c1ccsc1 (centres undefined) was run?
**A.** The Potency was inconclusive [inhibitor, full curve, poor fit].

**Q.** With Cc1ccc(C(=O)N2CCN(Cc3ccc4c(c3)OCO4)CC2)cc1C as the compound, how does the Potency read?
**A.** The Potency was inconclusive [inhibitor, partial curve, poor fit].

**Q.** For C=CCNC(=O)NC(=O)COC(=O)/C(C#N)=C/c1ccc(OC)cc1, which “activity change, negative = inhibition” value is on record?
**A.** Its value is inactive: -7.69%.

**Q.** For Cc1cc2occ(CC(=O)N(C)CC(=O)Nc3ccccc3Br)c2cc1C, which Potency is on record?
**A.** Its Potency is inconclusive [inhibitor, full curve, poor fit].

**Q.** For Cc1cc(C)n(-c2nc3c(c(=O)[nH]c(=O)n3C)n2CCc2ccccc2)n1, which Potency is on record?
**A.** The Potency was inconclusive [inhibitor, full curve, poor fit].

**Q.** CCCC(=O)Nc1nn(C)c2nc3cc(C)ccc3cc12 was tested. Which Potency did it give?
**A.** The Potency was inconclusive [inhibitor, partial curve].

**Q.** Which Potency does the source give for COc1ccc(CCn2c(N)c(C(=O)NCc3ccco3)c3nc4ccccc4nc32)cc1 here?
**A.** Its Potency is inconclusive [inhibitor, partial curve, poor fit].

**Q.** For Cc1cc2nc3c(=O)[nH]c(=S)[nH]c3nc2cc1NC(=O)C(F)(F)F, which “activity change, negative = inhibition” value is on record?
**A.** Its value is inactive: -11.9%.

**Q.** How did the Potency turn out when CN1C(=O)C(CC(=O)N2CCN(C(c3ccccc3)c3ccccc3)CC2)N(C)C1=O (centres undefined) was run?
**A.** The Potency was inconclusive [inhibitor, partial curve].

**Q.** Which “activity change, negative = inhibition” value does the source give for Cc1cccc(N2CCN(S(=O)(=O)c3ccc4c(c3)NC(=O)C(C)S4)CC2)c1C (centres undefined) here?
**A.** Its value is inactive: -7.4%.

**Q.** For CCOC(=O)c1c(NC(=O)COC(=O)c2ccc(Cl)nc2)sc(C(=O)N(C)C)c1C, which Potency is on record?
**A.** Its Potency is inconclusive [inhibitor, full curve, poor fit].

**Q.** For CC(=O)c1c(C(C)=O)c(C)n(C2CCCCC2)c1C, which “activity change, negative = inhibition” value is on record?
**A.** Its value is inactive: 3.34%.

**Q.** How did the Potency turn out when CCS(=O)(=O)N1Cc2ccccc2CC1C(=O)OCC(=O)Nc1ccc(C)cc1 (centres undefined) was run?
**A.** Its Potency is inconclusive [inhibitor, full curve, poor fit].

**Q.** How did the Potency turn out when Cn1c(C(=O)NC2CCCCC2)cc2sccc21 was run?
**A.** The Potency was inconclusive [inhibitor, full curve].

**Q.** How did the “activity change, negative = inhibition” value turn out when CCc1cccc(NC(=O)Cn2c(=O)n(CCc3ccc(OC)c(OC)c3)c(=O)c3ccccc32)c1 was run?
**A.** Its value is inactive: -1.29%.

**Q.** How did the Potency turn out when CC(=O)Nc1ccc2c(c1)N(C(=O)CN(C)C)c1ccccc1CC2 was run?
**A.** Its Potency is inconclusive [inhibitor, full curve, poor fit].

**Q.** For N#CC1=C(N)Oc2cc3c(cc2C1c1ccc(Cl)cc1)OCO3 (centres undefined), which Potency is on record?
**A.** Its Potency is inconclusive [inhibitor, single point].

**Q.** With O=C(Cc1cccc2ccccc12)N/N=C/c1ccc(OC(=O)/C=C/c2ccco2)cc1 as the compound, how does the Potency read?
**A.** The Potency was inconclusive [inhibitor, single point].

**Q.** How did the “activity change, negative = inhibition” value turn out when O=C(N/N=C(\Cc1ncc[nH]1)c1ccccc1)c1ccncc1 was run?
**A.** The value was inactive: 5.18%.

**Q.** For O=C(O)c1ccc(NC(=O)c2cn(-c3ccccc3)nc2-c2ccc(F)cc2)cc1, which Potency is on record?
**A.** The Potency was inconclusive [inhibitor, full curve, poor fit].

**Q.** Which Potency does the source give for O=C(COc1ccc([N+](=O)[O-])cc1)NCc1cccnc1 here?
**A.** The Potency was inconclusive [inhibitor, single point].

**Q.** For CC(C)(C)NC(=O)Cn1nnc(-c2cccs2)n1, which Potency is on record?
**A.** Its Potency is inconclusive [inhibitor, full curve, poor fit].

**Q.** CN(C)c1ccc(NC(=O)c2ccc3c(c2)nnn3C)cc1 was tested. Which “activity change, negative = inhibition” value did it give?
**A.** Its value is inactive: 7.71%.

**Q.** Cc1c(C(=O)Nc2cccnc2)oc2ccc(Br)cc12 was tested. Which “activity change, negative = inhibition” value did it give?
**A.** Its value is inactive: -9.48%.

**Q.** With COc1cc(OC)c(OC)cc1NC(=O)CC1COc2ccccc2O1 (centres undefined) as the compound, how does the Potency read?
**A.** Its Potency is inconclusive [inhibitor, single point].

**Q.** With Nc1ccc2c(c1)sc1ccccc12 as the compound, how does the “activity change, negative = inhibition” value read?
**A.** Its value is inactive: -16.8%.

**Q.** For Cc1cccc(OCc2nc(-c3nonc3N)no2)c1C, which “activity change, negative = inhibition” value is on record?
**A.** The value was inactive: 1.12%.

**Q.** For COc1cccc(C2NC(=O)NC(C)=C2C(=O)Nc2cccc(C)c2C)c1 (centres undefined), which Potency is on record?
**A.** Its Potency is inconclusive [inhibitor, full curve, poor fit].

**Q.** How did the Potency turn out when CN(C)c1ccc(C(=O)c2ccc(N(C)C)c(N)c2)cc1N was run?
**A.** Its Potency is inconclusive [inhibitor, full curve, poor fit].

**Q.** Which “activity change, negative = inhibition” value does the source give for O=C(/C=C/c1ccco1)NCC(=O)N/N=C/c1ccc(Cl)cc1 here?
**A.** The value was inactive: 4.08%.

**Q.** For Cc1ccc(-n2nnc3c(SCC(=O)NCc4ccco4)ncnc32)cc1, which Potency is on record?
**A.** The Potency was inconclusive [inhibitor, single point].

**Q.** How did the “activity change, negative = inhibition” value turn out when Cn1nnnc1Sc1ncnc2scc(-c3ccc[nH]3)c12 was run?
**A.** Its value is inactive: 3.74%.

**Q.** Which Potency does the source give for CCOC(=O)N1CCN(C(=O)c2ccc3c(=O)n(-c4ccc(F)cc4)c(=S)[nH]c3c2)CC1 here?
**A.** Its Potency is inconclusive [inhibitor, full curve, poor fit].
